Consider 1 molecule from article PMC6814707 (Communications Biology, 2019).

One test addresses T1, PD-L2-hFc-Biotin (UniProt Q9BQ51-1 20-220, biotin).
T1 construct: NP_079515.2, residues 20-220; Detected through its biotin with HRP-streptavidin; also called CD273; B7-DC
T1 sequence (looked up): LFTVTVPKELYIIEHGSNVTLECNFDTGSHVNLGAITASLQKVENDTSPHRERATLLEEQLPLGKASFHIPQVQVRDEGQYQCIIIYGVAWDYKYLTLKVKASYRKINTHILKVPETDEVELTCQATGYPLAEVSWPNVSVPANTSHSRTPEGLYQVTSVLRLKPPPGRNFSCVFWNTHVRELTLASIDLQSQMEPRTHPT
Description: ELISA; blocking: plates coated with PD-1 (21-167); antibody, then 2 ug/mL PD-L2-hFc-Biotin, 37 °C 60 min, detected with HRP-streptavidin. As to conditions: both partners purified. Background: ELISA stands for enzyme-linked immunosorbent assay.

The target of a further test is T2, PD-L1-mFc (UniProt Q9NZQ7-1 part only).
T2 construct: also called CD274; B7-H1
Put plainly: ELISA; blocking: plates coated with 0.5 ug/mL PD-1 (21-167); antibody from 3 ug/mL, 1.5-fold dilutions, 37 °C 120 min; then 1 ug/mL PD-L1-mFc, detected with HRP-anti-mouse Fc. As to conditions: both partners purified.

B1: recombinant human PD-1 protein ([…]) (domain or fragment)
chain: not shown
notes: PD-1 used in SPR and the ELISAs
In the case of B1, the binding result in the test with PD-L2-hFc-Biotin and with PD-L1-mFc was “binds” throughout.
